# Measured values reported in PubChem BioAssay AID504832 (National Center for Advancing Translational Sciences (NCATS), 2011).
# In all, about 310,000 compounds went through this assay and about 18,000 (5.8%) were called active. Inconclusive means that the source gave no clear call. Such entries were picked first, then a sample of the others. Calls follow the shape of the dose curve; as a rule, active = well fitted inhibition curve with a large enough effect; inconclusive = small, poorly fitted or top-dose-only effect, or another doubt; inactive = no such curve, though single readings can be large or run the other way. No potency is given beside an inconclusive call; the fits are too rough.
# Assay: Primary qHTS for delayed death inhibitors of the malarial parasite plastid, 48 hour incubation
# Details: P. falciparum luciferase growth in erythrocytes; series mostly up to 28.7 µM
# Procedure, shortened: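 Luciferase-expressing P. falciparum in infected erythrocytes (2% hematocrit, 0.1% parasitemia final) in RPMI 1640/0.5% Albumax were exposed to compound for 48 hours at 37 C, 5% CO2; growth read as luminescence.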
# % is scaled to controls: 0 for no effect and ±100 for the full control effect; potency is read from the fitted curve at half-maximal effect; tags tell the direction and shape of the fitted curve.
SMILES,Potency,"activity change, negative = inhibition"
CC(=O)NS(=O)(=O)c1ccc(NC(=O)/C=C/c2cn(-c3ccccc3)nc2-c2ccccc2)cc1,inactive,
Cc1ccccc1NC(=O)c1snc2c(=O)[nH]cnc12,inactive,
CCOc1ccc(-c2nnn(CC(=O)NCc3ccc(F)cc3)n2)cc1OCC,inactive,
CC(C)CCOC(=O)c1c(N)n(CC2CCCO2)c2nc3ccccc3nc12 (stereo not given),"inconclusive [inhibitor, single point]",
CN(C[C@H](CC1CCCCC1)N(C[C@H](Cc1ccccc1)N(CCc1ccccc1)N=O)N=O)N=O,active: 13.1 µM,
COc1ccccc1-n1cc(C(=O)NCC(=O)N2CCN(c3ccccn3)CC2)c2ccccc2c1=O,inactive,
Cc1ccc(NC2=C(NCCO)C(=O)c3ccccc3C2=O)cc1,active: 5.86 µM,
O=C1C2C(C(=O)N1/N=C/c1ccc([N+](=O)[O-])o1)C1C=CC2C12CC2 (stereo not given),"inconclusive [inhibitor, single point]",
O=S(=O)(NCc1cc(-c2ccccc2)no1)c1ccccc1,"inconclusive [inhibitor, single point]",
Fc1ccc(-c2c[nH]c(=S)n2Cc2ccccc2)cc1,active: 10.4 µM,
COc1ccccc1-c1cc2nc(C)c(CCC(=O)NCc3ccco3)c(C)n2n1,"inconclusive [inhibitor, single point]",
NC(=O)c1cc(Cc2ccccc2)sc1NC(=O)c1ccco1,inactive,
COc1cccc2cc(C(=O)N3CCN(c4ccc(C)cc4C)CC3)c(=O)oc12,"inconclusive [inhibitor, single point]",
CS(=O)(=O)NN1C(=O)c2ccccc2NC1c1c[nH]c2ccccc12 (stereo not given),inactive,
COc1ccc(/C=N/NC(=O)c2cc(C3CC3)[nH]n2)cc1OC,inactive,
Cc1cc(C)n2nc(-c3ccc(Cl)cc3)cc2n1,inactive,
CCCCN(C(=O)CNC(=O)c1ccco1)C(C(=O)NC1CCCCC1)c1ccc(OC)cc1OC (stereo not given),"inconclusive [inhibitor, partial curve, poor fit]",
CCOC(=O)C(C(=O)OCC)C(=O)c1cc(OC)c(OC)c(OC)c1,inactive,
OC1CCN(C(c2ccc3ncccc3c2)c2nnnn2C2CCCCC2)CC1 (stereo not given),"inconclusive [inhibitor, single point]",
CCn1c(SCC(=O)NCc2ccco2)nnc1C1CCCC1,inactive,
COc1ccc(-c2csc(N(CC3CCCO3)C(=O)c3ccco3)n2)cc1 (stereo not given),"inconclusive [inhibitor, single point]",
CN1CCN(C(=O)c2ccc(COc3ccc(Cl)cc3Cl)cc2)CC1,"inconclusive [inhibitor, single point]",
CC(C)CC(=O)Nc1nnc(SCC(=O)NCc2ccc3c(c2)OCO3)s1,"inconclusive [inhibitor, partial curve, poor fit]",
CON(C)c1nc(NCC(C)C)nc(OCC#N)n1,inactive,

SMILES,Potency,"activity change, negative = inhibition"
COc1cccc2cc(C(=O)N3C(C)CCCC3C)c(=O)oc12 (stereo not given),"inconclusive [inhibitor, single point]",
COc1ccc(NS(=O)(=O)c2ccc(N3CCCC3)c(NC(=S)Nc3ccc(SC(F)F)cc3)c2)cc1,"inconclusive [inhibitor, single point]",
CC(C)CC(=O)NC(=S)Nc1ccc(N2CCOCC2)cc1,inactive,
CCNC(=O)c1c(O)c2cccc3c2n(c1=O)CC3,"inconclusive [inhibitor, single point]",
CCCNC(=O)c1ccc(N2CCC3(CC2)CC(c2cccc(Br)c2)=NO3)c(NC(=O)c2ccc(Cl)c([N+](=O)[O-])c2)c1,"inconclusive [inhibitor, partial curve, poor fit]",
CSC(=S)N/N=C(\C)c1ccccc1,"inconclusive [inhibitor, single point]",
CCc1cc2c(=O)c(Oc3ccccc3F)c(C)oc2c(CN(C)C)c1O,active: 8.28 µM,
CCOC(=O)[C@H]1[C@H]2COc3cc(OC)ccc3[C@@H]2N2C(=O)CN(CCc3c[nH]c4ccccc34)C(=O)[C@@]12C,active: 7.38 µM,
COc1ccc(Br)c(/C=N/NC(=O)COc2ccc(-c3ccccc3)cc2)c1,"inconclusive [inhibitor, single point]",
COc1ccccc1NC(=O)CSc1nc2c(sc3ccccc32)c(=O)n1CCN(C)C,inactive,
O=C(Nc1ccccc1F)Nc1cccc2ccc(O)cc12,"inconclusive [inhibitor, single point]",
COc1ccc(NS(=O)(=O)c2cccc(C(=O)NCC(c3ccc(OC)cc3)N3CCOCC3)c2)cc1 (stereo not given),"inconclusive [inhibitor, single point]",
COC(=O)c1ccc(Oc2nc(NC(C)C)nc(N(C)C)n2)cc1,"inconclusive [inhibitor, single point]",
CCOc1nc(C)cc(C)c1S(=O)(=O)c1cccc(C)c1,inactive,
NC(=O)c1c(NC(=O)Cc2ccccc2)sc2c1CCN(Cc1ccccc1)C2,"inconclusive [inhibitor, single point]",
Cn1c(=O)c2c(nc(Sc3n[nH]c(N)n3)n2Cc2ccccc2Cl)n(C)c1=O,"inconclusive [inhibitor, single point]",
O=C(NCc1ccccc1)c1ccc(NC2=NC3CS(=O)(=O)CC3S2)cc1 (stereo not given),inactive,
Cc1ccc2nc(-c3ccccc3Cl)cc(C(=O)Nc3cc(C)on3)c2c1,"inconclusive [inhibitor, single point]",
CC1N(C)c2cc(NC(=O)c3ccco3)c(P(=O)(Nc3ccc([N+](=O)[O-])cc3)N3CCOCC3)cc2C1(C)C (stereo not given),active: 5.86 µM,
COC(=O)C1=C(C)N(Cc2ccccc2)C(=S)N[C@H]1CCc1ccccc1,"inconclusive [inhibitor, single point]",
C=C1C(=O)O[C@@H]2C[C@@H](C)[C@@H]3C=CC(=O)[C@@]3(C)[C@@H](OC(C)=O)[C@H]12,active: 2.08 µM,
Cc1ccc(C(CNS(=O)(=O)c2ccccc2)N2CCN(C)CC2)cc1 (stereo not given),"inconclusive [inhibitor, single point]",
COC(=O)C1=C(C)N(CCc2ccc(OC)c(OC)c2)C(=O)/C1=C\c1ccc(O)cc1,active: 11.7 µM,
O=C(COC(=O)C1(c2ccc(F)cc2)CCCC1)N1CCNC1=O,"inconclusive [inhibitor, single point]",

SMILES,Potency,"activity change, negative = inhibition"
Cc1ccc(SCC(=O)OCC(=O)N(CCC#N)c2ccccc2)cc1,inactive,
Nn1c(SCC(=O)Nc2ccc(F)c(F)c2)nnc1C1CCCCC1,inactive,
C#CCN1C(=O)S/C(=C/c2cc(C)n(CC)c2C)C1=O,inactive,
COc1ccc(CN=C(N)N=C(N)N)cc1Cl,"inconclusive [inhibitor, single point]",
COc1ccccc1CNCC(O)(c1ccc(Cl)cc1)c1ccc(Cl)cc1,active: 1.65 µM,
CCOC(=O)c1ccc(NC(=O)CSc2nnc(CCc3ccc(C)o3)n2-c2ccccc2)cc1,"inconclusive [inhibitor, single point]",
COCCCn1c(C)nnc1SCC(=O)Nc1cccc(C)c1,inactive,
Cn1cc(S(=O)(=O)N2CCOCC2)cc1C(=O)Nc1cccc(Cl)c1,"inconclusive [inhibitor, single point]",
CCS(=O)(=O)N1CCC(NC(=O)C(Cc2cccc(OC)c2OC)NC(C)=O)CC1 (stereo not given),"inconclusive [inhibitor, full curve, poor fit]",
O=C1c2ccccc2CN1CCSC(=S)N1CCOCC1,"inconclusive [inhibitor, single point]",
COc1ccc(C2CC(c3ccc(F)cc3)=NN2c2ccccc2)cc1OC (stereo not given),"inconclusive [inhibitor, partial curve, poor fit]",
COc1ccc(-n2c(SCC(=O)NCC3CCCO3)nc3n[nH]c(C)c3c2=N)cc1 (stereo not given),"inconclusive [inhibitor, partial curve]",
CC(=O)c1nnn(-c2cccc(C#N)c2)c1C,inactive,
CCc1ccc(Nc2c([N+](=O)[O-])c(=O)oc3ccccc23)cc1,"inconclusive [inhibitor, single point]",
COc1ccccc1NC(=O)CSc1nc(C)c2c(c1C#N)CCCC2,"inconclusive [inhibitor, partial curve, poor fit]",
COc1ccc(CCC2(C)NC(=O)N(C(C)C(=O)N3c4ccccc4CC3C)C2=O)cc1 (stereo not given),active: 13.1 µM,
O=C(O)C1CC=CCC1C(=O)N1CCN(c2nc(-c3ccccc3)c3ccccc3n2)CC1 (stereo not given),"inconclusive [inhibitor, partial curve, poor fit]",
C=CCn1c(=O)c(C(=O)Nc2ccccc2C)c(O)c2ccccc21,inactive,
Cc1snc(SCc2ccc(Cl)cc2)c1C#N,,inactive: 1.24% [at 0.00184 µM]
O=C(O)/C=C/c1ccc(S(=O)(=O)Nc2ccccc2C(=O)Nc2ccc(F)cc2)cc1,"inconclusive [inhibitor, partial curve, poor fit]",
CCN(CC)S(=O)(=O)c1ccc(-c2nnc(SCc3nnc(-c4ccc(C)cc4)o3)n2CC)cc1,"inconclusive [inhibitor, single point]",
C[C@@H](CN1C2=NC[C@H](Cc3ccccc3)N2C[C@H]1Cc1ccc(O)cc1)NC(=O)CCC1CCCCC1,"inconclusive [inhibitor, single point]",
